These are yes or no findings as the source states them, for the method shown. In cells and extracts the contact can be indirect. Some binding calls cover weakened binding; strength is not graded here. For some of these results: Where a sequence is shown, tags or fusion partners need not be part of it.
Tests used:
[1] = target: T1, endogenous cavin-1 of AS-M.5 human angiosarcoma-derived endothelial cells (human (endogenous in AS-M.5)) (UniProt Q6NZI2); test: co-IP; endogenous proteins; WT and SOCS3-null AS-M.5 cells treated with 50 μM Fsk and 6 μM MG132 for 4 h; IP with anti-cavin-1 antibody and protein G-Sepharose; immunoblot for SOCS3
T1 sequence: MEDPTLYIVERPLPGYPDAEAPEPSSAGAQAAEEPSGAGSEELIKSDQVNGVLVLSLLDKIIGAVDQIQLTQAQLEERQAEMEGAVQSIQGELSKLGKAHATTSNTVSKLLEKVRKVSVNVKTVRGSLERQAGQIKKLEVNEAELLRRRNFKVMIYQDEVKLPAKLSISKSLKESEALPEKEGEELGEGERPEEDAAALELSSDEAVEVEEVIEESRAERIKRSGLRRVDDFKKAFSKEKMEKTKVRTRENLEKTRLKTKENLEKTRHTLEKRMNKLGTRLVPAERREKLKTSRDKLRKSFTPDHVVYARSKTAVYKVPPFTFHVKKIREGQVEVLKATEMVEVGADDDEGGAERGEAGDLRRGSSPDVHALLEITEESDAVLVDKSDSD

Protein sequences, listed by entry. Tags and fused reporters are not part of them. Lines headed by an entry give the natural chain unless they say otherwise; changes in a name come on top. Chains listed by the source or under a name are the forms on record and can include a tag or linker. Residues count along the entry.
UniProt O35718: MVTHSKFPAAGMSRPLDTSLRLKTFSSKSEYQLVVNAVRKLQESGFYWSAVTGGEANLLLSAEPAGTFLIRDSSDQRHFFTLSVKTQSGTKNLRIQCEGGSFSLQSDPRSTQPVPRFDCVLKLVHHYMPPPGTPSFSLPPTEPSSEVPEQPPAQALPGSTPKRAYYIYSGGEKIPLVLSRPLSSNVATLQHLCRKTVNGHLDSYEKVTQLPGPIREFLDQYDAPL
ΔSH2 SOCS3 (amino acids 46-142) GFP fusion protein: residues 46-142 of O35718
SOCS3 SOCS box domain-only (amino acids 177-225) GFP fusion protein: residues 177-225 of O35718
ΔPEST Flag-SOCS3 (PEST motif Pro129-Arg163 replaced with (Gly-Ser)x4) (O35718, form named): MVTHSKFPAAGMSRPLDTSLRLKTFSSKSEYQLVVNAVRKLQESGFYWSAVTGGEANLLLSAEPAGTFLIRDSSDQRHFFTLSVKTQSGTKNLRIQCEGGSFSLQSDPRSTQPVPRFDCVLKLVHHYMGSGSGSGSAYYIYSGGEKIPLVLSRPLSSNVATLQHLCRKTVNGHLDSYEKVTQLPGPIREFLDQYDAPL
UniProt O14543: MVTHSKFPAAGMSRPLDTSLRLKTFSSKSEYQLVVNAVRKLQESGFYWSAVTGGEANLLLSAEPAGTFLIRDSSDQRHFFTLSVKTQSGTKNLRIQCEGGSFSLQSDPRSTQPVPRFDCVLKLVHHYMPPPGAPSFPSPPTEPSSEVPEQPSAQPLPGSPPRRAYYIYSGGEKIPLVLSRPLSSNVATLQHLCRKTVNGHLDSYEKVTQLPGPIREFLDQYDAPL

[2] = target: Flag-tagged WT murine SOCS3 (suppressor of cytokine signalling 3) (murine) (UniProt O35718); test: co-IP; soluble extracts of co-transfected HEK293 cells; IP with anti-Flag M2-agarose beads overnight at 4 °C; co-IP buffer 50 mM HEPES pH 7.4, 120 mM NaCl, 5 mM EDTA, 10% glycerol, 1% Triton X-100; immunoblot; in one panel cells treated with or without sodium orthovanadate (1 mM) and H2O2 (0.2 mM)
[3] = target: ΔSH2 SOCS3 (amino acids 46-142) GFP fusion protein (murine) (UniProt O35718); test: co-IP; soluble extracts of co-transfected HEK293 cells; IP with anti-GFP antibody and protein G-Sepharose beads; immunoblot for myc-tagged cavin-1
[4] = target: SOCS3 SOCS box domain-only (amino acids 177-225) GFP fusion protein (murine) (UniProt O35718); test: as above
[5] = target: Full-length murine WT SOCS3 GFP fusion protein (murine) (UniProt O35718); test: as above
[6] = target: T2, murine Grap2 (murine) (UniProt O89100); test: co-IP; soluble extracts of co-transfected HEK293 cells; IP with anti-Flag M2-agarose beads overnight at 4 °C; co-IP buffer 50 mM HEPES pH 7.4, 120 mM NaCl, 5 mM EDTA, 10% glycerol, 1% Triton X-100; immunoblot; in one panel cells treated with or without sodium orthovanadate (1 mM) and H2O2 (0.2 mM)
T2 sequence: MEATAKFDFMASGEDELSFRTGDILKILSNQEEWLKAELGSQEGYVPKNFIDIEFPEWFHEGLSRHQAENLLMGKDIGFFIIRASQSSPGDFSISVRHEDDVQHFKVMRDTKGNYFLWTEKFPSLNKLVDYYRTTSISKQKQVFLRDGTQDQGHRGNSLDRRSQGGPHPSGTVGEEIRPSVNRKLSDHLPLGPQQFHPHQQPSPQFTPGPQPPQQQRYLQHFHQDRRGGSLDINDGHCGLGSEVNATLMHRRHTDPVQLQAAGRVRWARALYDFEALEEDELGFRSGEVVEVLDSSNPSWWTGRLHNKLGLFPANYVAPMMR

[7] = target: T3, murine CIS (cytokine-inducible SH2-containing protein) (murine) (UniProt Q62225); test: as above
T3 sequence: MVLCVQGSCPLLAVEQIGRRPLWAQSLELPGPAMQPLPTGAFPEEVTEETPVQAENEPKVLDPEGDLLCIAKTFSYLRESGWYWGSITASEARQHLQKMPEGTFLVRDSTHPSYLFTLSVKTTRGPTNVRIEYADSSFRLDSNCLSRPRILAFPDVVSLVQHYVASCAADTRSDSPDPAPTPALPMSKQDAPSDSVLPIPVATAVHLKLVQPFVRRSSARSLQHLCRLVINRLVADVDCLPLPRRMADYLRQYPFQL

[8] = target: R71K-mutated Flag-SOCS3 (murine) (UniProt O35718); test: as above
[9] = target: T4, Grap2(SOCS3-PEST) chimera (murine) (UniProt O89100+O35718); test: as above
T4 sequence: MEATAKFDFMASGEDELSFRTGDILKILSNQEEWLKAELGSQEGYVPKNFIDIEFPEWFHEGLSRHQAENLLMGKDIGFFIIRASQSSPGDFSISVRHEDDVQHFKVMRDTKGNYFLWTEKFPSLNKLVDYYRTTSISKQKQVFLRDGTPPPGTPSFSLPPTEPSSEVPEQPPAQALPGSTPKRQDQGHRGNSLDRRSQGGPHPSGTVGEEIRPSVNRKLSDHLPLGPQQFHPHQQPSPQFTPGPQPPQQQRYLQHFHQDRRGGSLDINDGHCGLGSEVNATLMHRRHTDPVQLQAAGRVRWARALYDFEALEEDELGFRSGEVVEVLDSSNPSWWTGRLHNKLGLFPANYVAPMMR

[10] = target: ΔPEST Flag-SOCS3 (PEST motif Pro129-Arg163 replaced with (Gly-Ser)x4) (murine) (UniProt O35718); test: as above
[11] = target: HA-SOCS3 (UniProt O35718); test: co-IP; Flag-cavin-1 and HA-SOCS3 (Supplementary Fig. 3); which protein was precipitated is not given

Q: How did the binding [1] turn out when “endogenous SOCS3 of AS-M.5 human angiosarcoma-derived endothelial cells (from UniProt O14543 1-225)” was run?
A: Its binding is “binds”.

B1: Myc-tagged WT murine cavin-1 (protein, UniProt O54724 1-392)
chain: MEDVTLHIVERPYSGFPDASSEGPEPTQGEARATEEPSGTGSDELIKSDQVNGVLVLSLLDKIIGAVDQIQLTQAQLEERQAEMEGAVQSIQGELSKLGKAHATTSNTVSKLLEKVRKVSVNVKTVRGSLERQAGQIKKLEVNEAELLRRRNFKVMIYQDEVKLPAKLSVSKSLKESEALPEKEGDELGEGERPEDDTAAIELSSDEAVEVEEVIEESRAERIKRSGLRRVDDFKKAFSKEKMEKTKVRTRENLEKTRLKTKENLEKTRHTLEKRMNKLGTRLVPVERREKLKTSRDKLRKSFTPDHVVYARSKTAVYKVPPFTFHVKKIREGEVEVLKATEMVEVGPEDDEVGAERGEATDLLRGSSPDVHTLLEITEESDAVLVDKSDSD
Q: With B1 as the molecule, how does the binding [2] read?
A: Its binding is “binds”.

Q: And the binding [3]?
A: Its binding is “binds”.

Q: And the binding [4]?
A: Its binding is “no binding”.

Q: And the binding [5]?
A: The binding was “binds”.

B2: N-terminally GFP-tagged murine cavin-1 (protein, UniProt O54724 1-392)
chain: B1 chain
Q: Which results are given for B2?
A: binding [6]: no binding; binding [7]: binds; binding [8]: binds; binding [2]: binds; binding [9]: binds weakly; binding [10]: binds weakly

B3: Myc-tagged murine cavin-1 truncation mutant N1 (amino acids 74-392) (domain or fragment, UniProt O54724 74-392)
chain: QAQLEERQAEMEGAVQSIQGELSKLGKAHATTSNTVSKLLEKVRKVSVNVKTVRGSLERQAGQIKKLEVNEAELLRRRNFKVMIYQDEVKLPAKLSVSKSLKESEALPEKEGDELGEGERPEDDTAAIELSSDEAVEVEEVIEESRAERIKRSGLRRVDDFKKAFSKEKMEKTKVRTRENLEKTRLKTKENLEKTRHTLEKRMNKLGTRLVPVERREKLKTSRDKLRKSFTPDHVVYARSKTAVYKVPPFTFHVKKIREGEVEVLKATEMVEVGPEDDEVGAERGEATDLLRGSSPDVHTLLEITEESDAVLVDKSDSD
Q: Which binding [2] does the source give for B3 here?
A: Its binding is “binds”.

B4: Flag-cavin-1 (protein, UniProt O54724 1-392)
chain: B1 chain
Q: B4 was tested. Which binding [11] did it give?
A: Its binding is “binds”.

B5: Myc-tagged murine cavin-1 truncation mutant N2 (amino acids 168-392) (domain or fragment, UniProt O54724 168-392)
chain: LSVSKSLKESEALPEKEGDELGEGERPEDDTAAIELSSDEAVEVEEVIEESRAERIKRSGLRRVDDFKKAFSKEKMEKTKVRTRENLEKTRLKTKENLEKTRHTLEKRMNKLGTRLVPVERREKLKTSRDKLRKSFTPDHVVYARSKTAVYKVPPFTFHVKKIREGEVEVLKATEMVEVGPEDDEVGAERGEATDLLRGSSPDVHTLLEITEESDAVLVDKSDSD
Q: B5 was tested. Which binding [2] did it give?
A: The binding was “binds”.

B6: Myc-tagged murine cavin-1 truncation mutant N3 (amino acids 193-392) (domain or fragment, UniProt O54724 193-392)
chain: RPEDDTAAIELSSDEAVEVEEVIEESRAERIKRSGLRRVDDFKKAFSKEKMEKTKVRTRENLEKTRLKTKENLEKTRHTLEKRMNKLGTRLVPVERREKLKTSRDKLRKSFTPDHVVYARSKTAVYKVPPFTFHVKKIREGEVEVLKATEMVEVGPEDDEVGAERGEATDLLRGSSPDVHTLLEITEESDAVLVDKSDSD
Q: How did the binding [2] turn out when B6 was run?
A: The binding was “binds”.

B7: Myc-tagged murine cavin-1 truncation mutant N4 (amino acids 250-392) (domain or fragment, UniProt O54724 250-392)
chain: TRENLEKTRLKTKENLEKTRHTLEKRMNKLGTRLVPVERREKLKTSRDKLRKSFTPDHVVYARSKTAVYKVPPFTFHVKKIREGEVEVLKATEMVEVGPEDDEVGAERGEATDLLRGSSPDVHTLLEITEESDAVLVDKSDSD
Q: How did the binding [2] turn out when B7 was run?
A: Its binding is “binds”.

B8: Myc-tagged murine cavin-1 truncation mutant C2 (amino acids 1-167) (domain or fragment, UniProt O54724 1-167)
chain: MEDVTLHIVERPYSGFPDASSEGPEPTQGEARATEEPSGTGSDELIKSDQVNGVLVLSLLDKIIGAVDQIQLTQAQLEERQAEMEGAVQSIQGELSKLGKAHATTSNTVSKLLEKVRKVSVNVKTVRGSLERQAGQIKKLEVNEAELLRRRNFKVMIYQDEVKLPAK
Q: Which binding [2] does the source give for B8 here?
A: Its binding is “binds”.

B9: Myc-tagged murine cavin-1 truncation mutant C3 (amino acids 1-192) (domain or fragment, UniProt O54724 1-192)
chain: MEDVTLHIVERPYSGFPDASSEGPEPTQGEARATEEPSGTGSDELIKSDQVNGVLVLSLLDKIIGAVDQIQLTQAQLEERQAEMEGAVQSIQGELSKLGKAHATTSNTVSKLLEKVRKVSVNVKTVRGSLERQAGQIKKLEVNEAELLRRRNFKVMIYQDEVKLPAKLSVSKSLKESEALPEKEGDELGEGE
Q: With B9 as the molecule, how does the binding [2] read?
A: Its binding is “binds”.

B10: Myc-tagged murine cavin-1 truncation mutant C4 (amino acids 1-249) (domain or fragment, UniProt O54724 1-249)
chain: MEDVTLHIVERPYSGFPDASSEGPEPTQGEARATEEPSGTGSDELIKSDQVNGVLVLSLLDKIIGAVDQIQLTQAQLEERQAEMEGAVQSIQGELSKLGKAHATTSNTVSKLLEKVRKVSVNVKTVRGSLERQAGQIKKLEVNEAELLRRRNFKVMIYQDEVKLPAKLSVSKSLKESEALPEKEGDELGEGERPEDDTAAIELSSDEAVEVEEVIEESRAERIKRSGLRRVDDFKKAFSKEKMEKTKVR
Q: With B10 as the molecule, how does the binding [2] read?
A: The binding was “binds”.

— paper PMC5766592
